Reference: PubChem BioAssay AID488969 (Vanderbilt High Throughput Screening Facility, 2010)
Over roughly 110,000 compounds, “z-score” has its median near -0.1; the highest 2% begin near 2. The list shows a part of the results. Activity calls are given as the source filed them.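 The calls were made as follows: active = z-score in the third read window above 3 or below -3; inactive = the rest.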

These compounds were tested against Metabotropic glutamate receptor 8 (Rattus norvegicus) (UniProt P70579) (assay: rat mGluR8 modulators via GIRK flux, primary screen, cell-based, thallium flux, HTS (AID 488969)). Conditions: HEK293 rat mGluR8, GIRK (G protein-gated inwardly rectifying potassium channel) thallium flux, FluoZin2; at 10 µM; stronger effect = higher value; submaximal glutamate (EC20) added with thallium.
Chain of UniProt P70579 (P70579 whole entry, looked up): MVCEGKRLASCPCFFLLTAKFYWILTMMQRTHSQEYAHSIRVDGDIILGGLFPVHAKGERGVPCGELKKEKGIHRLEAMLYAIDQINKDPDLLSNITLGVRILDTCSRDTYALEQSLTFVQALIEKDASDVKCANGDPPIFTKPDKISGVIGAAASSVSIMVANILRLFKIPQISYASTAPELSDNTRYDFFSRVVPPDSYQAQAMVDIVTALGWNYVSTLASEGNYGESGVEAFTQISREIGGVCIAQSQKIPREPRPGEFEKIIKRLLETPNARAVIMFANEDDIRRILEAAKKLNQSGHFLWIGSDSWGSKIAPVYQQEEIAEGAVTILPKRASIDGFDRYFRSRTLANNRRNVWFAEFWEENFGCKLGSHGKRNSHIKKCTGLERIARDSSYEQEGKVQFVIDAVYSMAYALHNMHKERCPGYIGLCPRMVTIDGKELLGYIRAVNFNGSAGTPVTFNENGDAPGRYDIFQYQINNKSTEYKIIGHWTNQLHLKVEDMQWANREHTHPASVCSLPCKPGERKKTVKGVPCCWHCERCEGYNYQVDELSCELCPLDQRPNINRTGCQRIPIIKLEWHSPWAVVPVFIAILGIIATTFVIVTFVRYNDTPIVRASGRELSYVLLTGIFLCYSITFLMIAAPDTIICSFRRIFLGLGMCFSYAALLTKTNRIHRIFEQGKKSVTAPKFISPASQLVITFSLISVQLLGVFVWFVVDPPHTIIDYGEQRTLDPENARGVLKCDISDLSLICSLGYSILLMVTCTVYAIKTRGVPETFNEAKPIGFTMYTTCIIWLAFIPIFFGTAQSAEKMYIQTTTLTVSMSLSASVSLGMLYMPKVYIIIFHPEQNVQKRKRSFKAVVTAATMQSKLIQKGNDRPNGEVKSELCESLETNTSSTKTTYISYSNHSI

Compared with `Cc1ccccc1NC(NC(=O)OCCn1c([N+](=O)[O-])cnc1C)C(Cl)(Cl)Cl` (centres undefined), `Cc1nn(Cc2ccc([N+](=O)[O-])cc2)c(=O)n1-c1ccccc1` is higher in z-score: -0.421 for the first, -0.196 for the second.

Compared with `CC(=O)N(C(C)=O)c1c(C#N)c(C)n(-c2ccccc2)c1C(=O)c1ccccc1`, `Cc1cc(C(=O)N2CCN(C(c3ccccc3)c3ccccc3)CC2)no1` is lower in z-score: 0.969 for the first, -0.079 for the second.

First: Cc1ccc2cc3cc(C(=O)N4CCN(Cc5ccccc5)CC4)sc3nc2c1
Second: CCOC(=O)/C(=N\Nc1ccccc1Cl)N1CCN(Cc2ccccc2)CC1
The z-score of the first is higher: 0.586 for the first, 0.108 for the second.

Going from `CCOC(=O)/C(=N\Nc1ccc(OC)cc1)c1csc(Nc2ccccc2)n1` to `CCOC(=O)c1c(-c2ccccc2)csc1NC(=O)/C(C#N)=C/c1ccc(OC)c(OC)c1`, the z-score falls from 0.551 to -0.339.

Compared with `O=S(=O)(Cc1cc(-c2ccc(Cl)cc2)no1)c1ccccc1`, `Cn1nc(-c2ccccc2)c(-c2nc(-c3ccc(Cl)cc3)no2)c1Cl` is higher in z-score: -0.133 for the first, 0.0699 for the second.

Going from `CN(C)c1nc(N)nc(/C(C#N)=C/C2CC3C=CC2C3)n1` (centres undefined) to `N#Cc1nc(N2CCCC2)nc(N2CCCC2)n1`, the z-score rises from -1.16 to -0.523.

First: Cn1nnnc1SCCNCc1ccc(Cl)cc1
Second: C=CCSc1nnnn1-c1ccc(OC)cc1
The z-score of the first is lower: -0.013 for the first, 0.0875 for the second.

Going from `CCC(C)C(=O)N1CCCC(c2nc(-c3cccs3)no2)C1` (centres undefined) to `COc1ccc(S(=O)(=O)N[C@@H](Cc2ccccc2)C(=O)N2CC[C@@]3(O)CCCC[C@H]3C2)cc1`, the z-score falls from -0.744 to -1.35.

Going from `COc1ccc(Cl)cc1NC(=O)C/C(C)=N/NC(=O)CC#N` to `C/C(CC(=O)Nc1ccc(Cl)c(Cl)c1)=N\NC(=O)Cc1ccccc1`, the z-score rises from -0.633 to 0.146.

Going from `CC(C)C(NC(=O)C1CCCCC1)C(=O)Nc1ccncc1` (centres undefined) to `Cc1ccn(C(=O)c2ccc(NC(=O)C3CCCCC3)cc2)n1`, the z-score falls from 0.244 to -0.348.

Compared with `Cn1nc(-c2ccc(Cl)cc2)c2cc(C(=O)NC3CC3)sc21`, `Cc1cc(C(=O)CSc2nnc(-c3ccc(Cl)cc3)n2CC2CCCO2)c(C)n1C` (centres undefined) is higher in z-score: 0.194 for the first, 0.741 for the second.

Compared with `COCCOC(=O)C1=C(C)NC2=C(C(=O)CCC2)C1c1cc2c(cc1Br)OCO2` (centres undefined), `CCCCC(=O)Nc1ccc(NC(=O)c2ccc3c(c2)OCO3)cc1OC` is lower in z-score: 0.0462 for the first, -0.065 for the second.

First: O=C(Nc1ccc(CN2CCOCC2)cc1)c1cc2ccccc2o1
Second: CCOC(=O)c1oc2ccccc2c1CN1CCOCC1
The z-score of the first is higher: 0.834 for the first, -0.0247 for the second.

Compared with `CC(Oc1ccccc1)C(=O)Nc1oc(-c2ccco2)c(-c2ccco2)c1C#N` (centres undefined), `Cc1c(-c2nc(N)nc(Nc3ccccc3)n2)oc2ccccc12` is lower in z-score: 0.186 for the first, 0.0136 for the second.

Going from `Fc1ccc(NC(=S)N2CCCCC2)cc1` to `Cn1c(=O)cc(OCCCC(=O)N2CCCCC2)c2ccccc21`, the z-score falls from 0.208 to -0.973.

Compared with `CCc1nnc(N2CCN(c3ncnc4c3oc3ccccc34)CC2)s1`, `Cc1nc2cc(-c3ccccc3)nn2c(C)c1CCC(=O)N1CCN(c2ccccn2)CC1` is higher in z-score: -0.466 for the first, 0.627 for the second.

Going from `O=C(NN1CCOCC1)c1cccc2ccccc12` to `O=C(Cc1ccc(-n2cccc2)cc1)NC1CCCCCC1`, the z-score falls from 0.557 to -0.59.

Compared with `COC(=O)c1sc(NC(=O)COc2cccc(C)c2)nc1C`, `CCOC(=O)/C(C#N)=C/c1c(Oc2cccc(C)c2)nc2c(C)cccn2c1=O` is higher in z-score: -0.0129 for the first, 0.646 for the second.

Going from `CCOc1ccc(C2C(C#N)=C(N)N(c3sc4c(c3C#N)CCCC4)C3=C2C(=O)CCC3)cc1` (centres undefined) to `N#Cc1c(NC(=O)c2ccccc2)sc2c1CCCCC2`, the z-score rises from -0.26 to -0.0717.

First: Cc1cc(N2CCC(C)CC2)n2nc(C)c(-c3ccccc3)c2n1
Second: COc1ccccc1CNC(=O)C1CCN(S(=O)(=O)c2c(C)noc2C)CC1
The z-score of the first is higher: -0.28 for the first, -0.299 for the second.

Going from `COC(=O)c1ccc(C2c3c(oc4ccc(F)cc4c3=O)C(=O)N2CCO)cc1` (centres undefined) to `Cc1cc(=O)oc(C)c1C(=O)OCC(=O)c1ccc(Cl)cc1`, the z-score falls from -0.286 to -0.417.

First: O=C(NC1=NCCS1)c1sc2cc(Cl)cc(Cl)c2c1Cl
Second: O=C(NNc1cc(N2CCOCC2)nc(N2CCOCC2)n1)c1ccc(Cl)cc1Cl
The z-score of the first is lower: -0.48 for the first, 0.211 for the second.

Compared with `O=C1CSc2nc3ccccc3n21`, `Cc1cc(C)c(C)c(Cn2c(CO)nc3ccccc32)c1C` is higher in z-score: -0.0881 for the first, 0.457 for the second.

Going from `CCOC(=O)c1cnc(SC2CCc3ccccc3C2=O)nc1N` (centres undefined) to `CCOC(=O)c1c(NC(=O)c2cc(-c3ccc(Cl)s3)nc3ccccc23)sc(C(N)=O)c1C`, the z-score rises from -1.03 to 1.25.

Going from `CC1(C)CC(C#N)(N2CCOCC2)CCO1` (centres undefined) to `O=C1Nc2c(Br)cc(Br)cc2C1(O)N1CCOCC1` (centres undefined), the z-score falls from 0.231 to -0.184.

Compared with `CCOc1nc(-c2ccccc2)ccc1-c1noc(COC)n1`, `Cc1ccc(C)c(OCc2nc(-c3cccnc3)no2)c1` is higher in z-score: -0.0165 for the first, 0.0105 for the second.

Going from `CCn1ncc([N+](=O)[O-])c1C(=O)N1CCCC1` to `CCc1c(C)sc(NC(=O)OC)c1C(=O)N1CCCCC1`, the z-score rises from -0.182 to -0.174.

Going from `COc1cccc(N2C(=O)CC(c3c[nH]c4ccccc34)C2=O)c1` (centres undefined) to `CCn1c(SCC(=O)Nc2ccc(OC)c(OC)c2)nnc1-c1c[nH]c2ccccc12`, the z-score falls from -0.102 to -0.141.

Compared with `CC1(C)CC(=O)C2=C(C1)NC(=O)CC2c1ccccc1F` (centres undefined), `CC1=CC(C)C2C(=O)N(c3ccccc3)C(=O)C2C1` (centres undefined) is higher in z-score: -0.00253 for the first, 1.3 for the second.

First: O=c1[nH]c(N/N=C/c2ccccc2)nc2ccccc12
Second: O=C(N/N=C/c1cc([N+](=O)[O-])ccc1O)c1cc(-c2ccccc2)nc2ccccc12
The z-score of the first is lower: -0.345 for the first, 0.052 for the second.

Going from `CCN(CC)C(=O)C(=O)N/N=C/c1ccc(C(=O)O)cc1` to `CCN(CC)c1ccc(NC(=O)COC(=O)c2cccs2)cc1`, the z-score rises from -0.418 to -0.181.

Compared with `COC(=O)\C(C(C)=O)=C(/C=C/C=C/C=C/N(C)C)N(C)C`, `CCOC(=O)c1c(NC(=O)C2=C(C)NC(=S)NC2c2ccc(F)cc2F)sc(C)c1C` (centres undefined) is higher in z-score: -1.31 for the first, 0.556 for the second.

Going from `Cc1ccc(-c2n[nH]c(=S)n2/N=C/c2cc3c(cc2[N+](=O)[O-])OCO3)cc1` to `O=C(CSc1nnc(Cc2ccccc2)o1)Nc1ccc2c(c1)OCO2`, the z-score falls from -0.121 to -0.178.

Going from `CCN(CC)Cc1nc2c(c(=O)[nH]1)C1(CCCC1)Cc1ccccc1-2` to `CCC(=O)NC(=S)Nc1ccccc1C(=O)NC1CCCCC1`, the z-score rises from -0.835 to 0.0414.

First: COc1cc(CN2CCCC(C)C2)cc([N+](=O)[O-])c1O (centres undefined)
Second: CC1CCCN(Cc2c(O)ccc3c(=O)c(-c4nc5ccccc5s4)c(N)oc23)C1 (centres undefined)
The z-score of the first is lower: -0.494 for the first, 0.0103 for the second.

Compared with `COC(CNC(=O)c1ccc(N2CCc3ccccc32)c([N+](=O)[O-])c1)OC`, `COc1ccc(Cc2nnc(NC(=O)c3cccc([N+](=O)[O-])c3)s2)cc1` is lower in z-score: -0.241 for the first, -0.367 for the second.

Compared with `Cn1c(=O)c2c(SCC(=O)NCc3ccco3)nc(CC(C)(C)C)nc2n(C)c1=O`, `Cc1ccc(-n2c(SCC(=O)OC(C)C)nnc2-c2ccco2)cc1` is lower in z-score: 0.18 for the first, -0.429 for the second.

Compared with `CCOC(=O)C1=CSC2=NS(=O)(=O)CCN12`, `CCn1ccc(C(=O)Oc2ccc(Cl)cc2)n1` is higher in z-score: -1.31 for the first, -0.0654 for the second.

First: CC(C)c1nc2sc3c(c2c(=O)o1)CCCC3
Second: O=c1c2c3c(sc2ncn1/N=C/c1ccc(Br)o1)CCCC3
The z-score of the first is lower: -0.242 for the first, 1.24 for the second.

Going from `COc1ccc(CCNC(=O)CSc2nncs2)cc1` to `C=CCn1c(COc2ccccc2)nnc1SCC(=O)C(C)(C)C`, the z-score falls from -0.218 to -0.29.

Going from `C1CCC2=NCCCN2CC1` to `Cc1ccc(S(=O)(=O)Nc2cc(C(=O)NCCN3CCCC3)ccc2N2CCCCC2)cc1`, the z-score rises from -0.251 to 1.81.

Going from `CCCSc1ccc(-c2nn(-c3ccccc3)cc2/C=C(/C#N)C(=O)NCCCOC)cc1` to `Cc1nn(-c2ccccc2)c(Cl)c1/C=C(\C#N)C(=O)NC(C)C`, the z-score rises from 0.0718 to 0.822.

First: Cc1nn(C)c(C)c1S(=O)(=O)N1CCC(C(=O)NCCC2=CCCCC2)CC1
Second: O=C(NCCc1ccccn1)C1CCCN(S(=O)(=O)Cc2ccccc2)C1 (centres undefined)
The z-score of the first is higher: 1.23 for the first, -0.112 for the second.

First: CCC(C)NCC(O)COCc1ccc(Cl)cc1 (centres undefined)
Second: Clc1ccc(Nc2ncn[nH]2)cc1
The z-score of the first is higher: 0.901 for the first, 0.071 for the second.

Compared with `CC(C)(C)OC(=O)NCCc1nnc(S(=O)(=O)Cc2ccc(Cl)cc2Cl)o1`, `Cc1ccc(NS(=O)(=O)c2cc(OCC(N)=O)c(C)cc2Cl)cc1C` is higher in z-score: -1.15 for the first, 0.294 for the second.

First: Cc1cc[n+](-c2[nH]c(=O)sc2/C=N/NC([S-])=Nc2ccccc2)cc1C
Second: Cc1nc(C)c(C(=O)N/N=C/c2c[nH]c3ccccc23)s1
The z-score of the first is lower: 0.027 for the first, 0.489 for the second.

First: CCOC(=O)C1CN(S(=O)(=O)c2ccccc2)CCN1S(=O)(=O)c1ccccc1 (centres undefined)
Second: NC(=O)COC(=O)c1cccc(NS(=O)(=O)/C=C/c2ccccc2)c1
The z-score of the first is lower: -0.313 for the first, -0.152 for the second.

Going from `CC1CCc2cc(F)ccc2N1S(=O)(=O)c1ccc(Cl)nc1` (centres undefined) to `Cc1ccc(C)c(N(Cc2ccccc2F)S(C)(=O)=O)c1`, the z-score rises from -0.563 to -0.0198.

First: O=C(c1ccco1)[C@@H]1[C@@H]2C(=O)N(c3ccc(Br)cc3)C(=O)[C@@H]2C2c3ccccc3C=CN21 (some centres undefined)
Second: COc1cc(S(=O)(=O)Nc2ccccc2)ccc1N=Cc1c(C)[nH]n(-c2ccc(C)cc2)c1=O
The z-score of the first is higher: 0.277 for the first, -0.199 for the second.

First: CCOc1ccccc1CNC(=O)c1ccc(Sc2ccc(Cl)cc2)c(NC(C)=O)c1
Second: O=C1c2ccccc2C2=Nc3ccccc3SC(c3ccc(Cl)cc3)C12 (centres undefined)
The z-score of the first is lower: -0.248 for the first, -0.247 for the second.

First: CN1CCN(CCOc2ccc(Cl)c(Cl)c2)CC1
Second: CN(CC(=O)N1CCN(c2ccccn2)CC1)S(=O)(=O)c1ccc(Br)cc1
The z-score of the first is lower: -0.12 for the first, -0.089 for the second.

Compared with `O=C1/C(=C/c2ccc(O)cc2)SC(=S)N1Cc1cccnc1`, `Cc1ccc(C)c(N(C)C(=O)c2coc(=O)c3ccccc23)c1` is lower in z-score: -0.121 for the first, -0.172 for the second.

Compared with `COc1ccccc1NC(=S)N1CCC(NC(=O)NC23CC4CC(CC(C4)C2)C3)CC1`, `COc1ccc([N+](=O)[O-])cc1NC(=O)c1cn(-c2ccc(C)c(C)c2)c(=O)c2ccccc12` is higher in z-score: -0.187 for the first, 0.00792 for the second.

Work on `O=C(c1ccco1)N1CCN(C(=O)c2cc3sccc3n2Cc2ccccc2)CC1` yielded a z-score of 0.587.

For `CC(C)C(=O)Nc1ccccc1N1CCN(C(=O)c2ccccc2)CC1`, the z-score was active: -3.21.
`CCc1cccc(CC)c1-n1c(SCC(=O)N2CCc3ccccc3C2)nnc1-c1cccnc1` was tested, and the z-score was active: -3.06.
